# Laboratory results published in the RNAGym collection of RNA variant scans (doi:10.1073/pnas.2313332121).
# Variants at the floor of the assay are shown more often than the library holds them.
# B1: TPR 5TU (parent)
# chain: GGAUCUUCUCGAUCUAACAAAAAAGACAAAUCUGCCACAAAGCUUGAGAGCAUCUUCGGAUGCAGAGGCGGCAGCCUUCGGUGGCGCGAUAGCGCCAACGUUCUCAACUAUGACACGCAAAACGCGUGCUCCGUUGAAUGGAGUUUAUCAUG
# Variants of: B1
# Assay: polymerase ribozyme fitness, log enrichment relative to wild type (log ratio); higher = more active; in vitro selection for triplet polymerase activity
# Outline: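 Input and output libraries were sequenced on Illumina after a single in vitro selection round, run in triplicate on PCR-built, transcribed mutant libraries of each subunit of a heterodimeric triplet polymerase ribozyme. Selection annealed libraries to a biotinylated primer, the partner subunit and triplets, incubated them frozen at −7 °C, then gel-excised extended constructs for streptavidin-bead capture and RT-PCR. Genotypes with ≥10 input reads and ≥1 read per output were kept. Fitness is the logarithm, taken in base 2, of genotype enrichment divided by wild-type enrichment, using inverse-variance-weighted replicate averages.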
row,Variant,polymerase ribozyme fitness (log ratio)
1,GGAUCUUCUCGAUCUAACAAAAAAGUCAUAUCUGCCACAAAGCUUGAGAACAUCUACGGAUGCAGAGGGGGCAGCCUUCGGUGGCGCGAUAGCGCAAACGUUCUCAACUAUGACACGCAAAACGCGUGCUCCGUUGAAUGGAGUUUAUCAUG,≤ -4.2
2,GGAUCUUCUCGAUCUAACAAAAAAGUCAAAUCUGCCACGAAGCUUGAGAGCAUCUUCGGAUGCAGAGGCGUCAGCCUUCGGUGGCGCGAUAGCGCCAACGUUCUCAACUAUGACACGCAAAACGCGUGCUCCGUUGAAUGGAGUUUAUCAUG,≤ -4.2
3,GGAUCUUCUCGAUCUAACAAAAAAGUCAAAUCUGCCACAAAGCUUGAGAGCAUCUUCGGAUGCAGCGGCGGGAGCCUUCGGUGUCGCGAUAGCGCCAACGUUCUCAACUAUGACACGCAAAACGCGUGCUGCGUUGAAUGGCGUUUAUCAUG,≤ -4.2
4,GGAUCUUCUCGAUCUAACAAAAAAGUCAAAUCUGCCACAAAGCUUGAGAGCAUCUUCGGAUGCAGAGGCGGCAGCCUUCGGUGGCGCGAUAGCGCCAGCGUUCUCAACUAUGACACGCAAAACGCGGGCUCCGUUGAAUGGAGUUUAUCAUG,≤ -4.2
5,GGAUCUUCUCGAUCUAACAAAAAAGUCAAAUCUGCCACAAAGCUUGAGUGCAUCUUCGGAUGCAGAGUCGGUAGCCUUCGGUGACUCGAUAGCGCCAACGUUCUCAACUAUAACACGCAAAGCGCGUGCUCCGUUGAAUGGAGUUUAUCAUG,≤ -4.2
6,GGAUCUUCUCGAUCUAACAAAAAAGUCAAUUCUGCCACAAAGCUUGAGAGCAUCUUCGGAUGCAGAGGCGGCAGCCUUCGGUGGCGCGAUAGAGCCAACGUUCUCAACUAUGACUCGCAAAACGCCUGCUCCGUUGAAUGGAGUUUAUCAUG,≤ -4.2
7,GGAUCUUCUCGAUCUAACAAAAAAGUCAAAUCUGGCACAAAGCUUGAGAGCAUCUUCGGAUGCAGAAGCGGCAGCCUUCGGUGGUGCGAUAGCGCCAACGUUCUCAACUAUGACACGCAAAACGCGUGCUCCGUUGAAUGCAGUUUAUCAUG,≤ -4.2
8,GGAUCUUCUCGAUCUAACAAAAAAGUCAAAUCUGCCCCAAAGCUUGAGAGCAUCUUCGGAUGCAGAGGCGGCAGCCUUCGGUGGCGCGAUAGCGGCAACGUUCUCACCUAUGACACGCAAAACGCGUGCUCCGUUGAAUGGAGUUUAUCAUU,≤ -4.2
9,GGAUCUUCUCGAUCUAACAAAAAAGGCAAAUCUGCCACAAAGCUUGAGAGCAUCUUCGGAUGCAGAGGCGGCAGCCUCCGGUGGCGCGAUAGCGCCAACGUUCUCAACUAUGACACGCAAAACGCGUGCUCCGUUGAAUGGAGUUUAUCAUG,-3.95
10,GGAUCUUCUCGAUCUAACAAAAAAGGCAAAACUGCCACAGAUCUUGAGAGCAUCUUCGGUUGCAGAGGCGGCAGCCUUCCGUGGCGCGAUAGCGCCAACGUUCUCAACUAUGAUACGCAAAACGCGUGCUCCGAUGAAUGGAGCUUAUCAUG,≤ -4.2
11,GGAUCUUCUCGAUCUAACAAAAAAGGCAAAUCUGCCACAAAGCUAGAUAGCAUCUUCGGAUGCAGAGGCGGCAGCCUUCGGUGGCGCGAUAGCGUCAACGUUCUCAAGUAUGACACGCAAAACGCUUGCUCCGUUGAAUGGAGUUUAUCAUG,≤ -4.2
12,GGAUCUUCUCGAUCUAACAAAAAAGUCAAAUCUGCCACAAAGCUUGAGGGCAUCUUAGGAUGCAGAGGCGGCAGCCUUCGGUGGCGCUAUAACGCCAACAUUCUCUACUAUGACACGCAAAACGUGUGCUCCGUUGAAUGGAGUUUAUCAUG,≤ -4.2
13,GGAUCUUCUCGAUCUAACAAAAAAGUCAAAUCUGCCCCAAAGCUUGAGAGCAUCUUCGGAUGCAGAGGCGGCAGCCUUCGGUGGCGCGAUAGGGCCAACGUUCUGAACUAUGACACGCAAAACGCGUUCUCCGUUGAAUGGAGUUUAUCAUG,≤ -4.2
14,GGAUCUUCUCGAUCUAACAAAAAAGUCUAAUAUGCCACAAAGCUUGAGAGCUUCUUCGGAUGCAGAGGCGGCUGCCUUCGGUGGCGCGAUUACGCCAACGUUCUCAACUAUGGCACGCAAAACGCGUGCUCCGUUGAAUGGAGUUUAACAUU,≤ -4.2
15,GGAUCUUCUCGAUCUAACAAAAAAGUCAAAUCUGCAACAAAGCUUGAGAGCAUCUUCGGAUGCAGAGCCGGCAGCCUUCGGUGGCUCCAUAGCGCCAACGUUCUCAACUAUGACACGCAAAACGCGUGCUCCGUUGAAUGGAGUUUAUCAUG,≤ -4.2
16,GGAUCUUCUCGAUCUAACAAAAAAGUCAAAUCUGCCACAAAGCUUGAGAGCAUCUUCGGAUGCAGAGGCGGCAGCCUUCGGUGGCGCGAUAGCGCCAACGUUCUCAACUAUGACACGCAAAACGCGUGCUCCGUUGAAUGGAGUUUAUCAUG,-1.21
17,GGAUCUUCUCGAUCUAACAAAAAAGGCAAAUCUGCCACAAAGCUUGAGAGCAUCAUCGGAUGCAGAGGCGGCAGCCUUCGGUGGCGCGAUAGCGCUUACGUUCUUAACUAUGACACGCCAAACGCGUGCUCCGUUGAAUGGAGUUUAUCAUG,≤ -4.2
18,GGAUCUUCUCGAUCUAACAAAAAAGUCAAAUCUGCUACAAAGCUUGAGAGCAUCAUCGGAUGCAGAGUCGGCAGCCUUCGGUGGUGCGAUAUCGCCAACGUUCUCAACUAUGACACGCAAAACGGGUGCUCCGUUGAAUGGAGUUUUUCAUG,≤ -4.2
19,GGAUCUUCUCGAUCUAACAAAAAAGGCAAAUCUGCCACAAAGCUUGAGAGCAUCAUCGGAUGCAGAGGCGGCAGCCUUCGGUGGCGCGAUAGCGCUAACGUUCUCAACUAUGACACGCAAAACGCGUGCUCCGUUGCAUGGAGUUUAUCAUG,≤ -4.2
